Assay results from PMC4336329 (PLoS ONE, 2015).
In all, about 310,000 compounds went through this assay and about 14,000 (4.5%) showed an effect of 50% or more. The effect is printed as a negative number. The list shows a part of the results.

Molecular target: human ether-à-go-go-related gene (hERG) potassium channel (human, UniProt Q12809)
Experiment: primary screen, population patch clamp on CHO cells stably expressing hERG
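Note: peak tail current of the secondary pulse compared with the same well before compound.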

human ether-à-go-go-related gene (hERG) potassium channel, sequence (Q12809 whole entry, looked up): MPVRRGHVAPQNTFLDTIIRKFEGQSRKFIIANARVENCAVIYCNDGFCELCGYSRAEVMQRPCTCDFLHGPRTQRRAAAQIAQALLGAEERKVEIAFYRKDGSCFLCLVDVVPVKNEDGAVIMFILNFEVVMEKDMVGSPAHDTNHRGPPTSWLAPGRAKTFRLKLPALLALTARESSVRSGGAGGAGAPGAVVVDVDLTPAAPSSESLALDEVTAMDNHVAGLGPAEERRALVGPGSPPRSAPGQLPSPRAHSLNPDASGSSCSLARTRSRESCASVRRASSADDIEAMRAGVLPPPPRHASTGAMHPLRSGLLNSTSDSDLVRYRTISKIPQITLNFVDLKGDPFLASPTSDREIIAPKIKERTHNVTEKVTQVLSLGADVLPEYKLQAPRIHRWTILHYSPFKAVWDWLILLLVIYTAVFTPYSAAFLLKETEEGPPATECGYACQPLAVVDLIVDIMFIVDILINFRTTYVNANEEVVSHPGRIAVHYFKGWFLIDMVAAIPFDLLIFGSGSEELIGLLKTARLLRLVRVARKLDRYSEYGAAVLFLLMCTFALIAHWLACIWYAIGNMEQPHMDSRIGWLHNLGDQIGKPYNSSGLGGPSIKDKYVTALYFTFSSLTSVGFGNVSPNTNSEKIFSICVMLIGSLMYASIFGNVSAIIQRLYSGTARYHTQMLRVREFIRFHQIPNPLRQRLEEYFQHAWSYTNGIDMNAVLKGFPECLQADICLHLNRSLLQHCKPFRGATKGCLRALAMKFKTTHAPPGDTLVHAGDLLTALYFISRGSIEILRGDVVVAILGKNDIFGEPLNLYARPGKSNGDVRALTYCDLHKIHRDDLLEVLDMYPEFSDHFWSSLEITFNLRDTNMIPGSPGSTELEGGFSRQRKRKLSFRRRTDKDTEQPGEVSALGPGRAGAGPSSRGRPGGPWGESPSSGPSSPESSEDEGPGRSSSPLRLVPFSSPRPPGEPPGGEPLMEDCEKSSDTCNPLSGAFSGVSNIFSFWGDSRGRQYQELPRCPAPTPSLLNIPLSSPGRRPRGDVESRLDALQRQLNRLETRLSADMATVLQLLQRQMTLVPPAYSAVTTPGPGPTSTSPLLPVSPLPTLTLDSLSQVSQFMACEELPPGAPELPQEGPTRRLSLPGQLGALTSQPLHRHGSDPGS

SMILES	hERG current change (%, negative = inhibition) at 10uM
CN1C(=O)C2(c3ccccc31)C1CCCC=C1C(C#N)=C(N)C2(C#N)C#N (stereo not drawn)	5.52%
Cn1ncc(Cl)c1C(=O)NCc1ccc2c(c1)OCO2	6.44%
CCOc1ccc(C(=O)N/N=C/c2cc(Cl)ccc2[N+](=O)[O-])cc1	-11.6%
O=C(Cn1c(=O)c2cccn2c2ccccc21)NCCCN1CCCCC1	3.5%
Cc1ccc(NC(=S)N2CCC(NC(=O)c3ccc(F)cc3)CC2)cc1C	9.31%
O=C(CCn1c(=S)[nH]c2ccccc2c1=O)N1CCOCC1	-5.37%
CCN(CC(=O)Nc1c(F)cccc1F)C(=O)CN1C(=O)NC2(CCCC2)C1=O	22.5%
CCN1CCN(c2ncnc3ccc(Br)cc23)CC1	-7.57%
N#CCCN/N=C(\Cc1nc2ccccc2[nH]1)c1ccccc1	8.11%
CCOC(=O)N1CCC(Nc2c(NCCCN(CC)Cc3ccccc3)c(=O)c2=O)CC1	6.06%
CCOc1ccccc1C(=O)NN1C(=O)C2CCCCC2C1=O (stereo not drawn)	13.3%
COc1ccc(/C=C/C(=O)NC(=S)Nc2ccc(C(=O)O)cc2)cc1	18.9%
O=C(c1cc(=O)[nH]c2ccccc12)N1CCc2ccccc2C1	11%
CC(C)=CCc1c(O)ccc2c1OC(c1ccc(O)c(O)c1)CC2=O (stereo not drawn)	9.78%
COc1ccc(CCNC(=O)COC(=O)c2cnccn2)cc1	2.09%
CCN1CCN(CCCNC(=O)CCc2nc(-c3ccc(OC)cc3)no2)CC1	-2.35%
Cc1ccccc1CS(=O)(=O)CCC(=O)NCc1ccc(F)cc1Cl	-1.18%
CCOC(=O)N1CCC(NC(=O)c2cc3sccc3n2CC)CC1	2.28%
O=C(COC(=O)CCNS(=O)(=O)c1cccc(C(F)(F)F)c1)NC(=O)NC1CCCCC1	-14.4%

SMILES	hERG current change (%, negative = inhibition) at 10uM
CCOC(C(=O)OCCCN(CC)CC)(c1ccccc1)c1ccccc1.Cl	-11.5%
Cc1csc(Nc2ccccc2)[n+]1C.[Br-]	6.99%
O=C(CSCc1ccccc1)NC1CCSC1=O (stereo not drawn)	-7.15%
CCOC(=O)c1c(C)[nH]c(C)c1S(=O)(=O)NCC1CCN(Cc2ccccc2F)CC1	-4.61%
CCOC(=O)N1CCC(NC(=O)CCc2nc(-c3ccccc3F)no2)CC1	13%
COc1cccc(CC(NC(C)=O)C(=O)NC2CCN(S(=O)(=O)c3ccc(NC(C)=O)cc3)CC2)c1OC (stereo not drawn)	20.5%
CCCC(=O)Oc1ccc(C2NC(=O)c3ccccc3O2)cc1 (stereo not drawn)	17.8%
O=C(NCCc1ccccn1)c1cccc(S(=O)(=O)N2CCc3ccccc32)c1	-25%
CC(=O)c1ccc(N(C)C)cc1	0.133%
Cc1ccccc1-n1c(O)c(C=Nc2ccc3c(c2)OCO3)c(=O)[nH]c1=O	1.75%
Cn1nc(C(=O)NCc2ccccc2)c2ccccc2c1=O	16.6%
Cc1cc(N2CCN(C)CC2)nc2ccc(NC(=S)N3CCOCC3)cc12	-15.4%
Nc1nc(SCC(=O)N2N=C(c3ccc(Cl)cc3)CC2c2ccco2)n[nH]1 (stereo not drawn)	-5.6%
COCCNc1nc(-n2nc(C)cc2C)nc2sc3c(c12)CCCC3	-25.2%
Clc1ccc(OCc2nnc(SCc3nnc(-c4ccccc4)o3)o2)c(Cl)c1	2.78%
NC(=O)c1nsc(C(=O)N(c2ccccc2)C(C(=O)NCC2CCCO2)c2ccc(F)cc2)c1N (stereo not drawn)	18.4%
O=C(NCCCNC(=O)c1ccccn1)c1ccccn1	10.7%
CCOc1ccc(S(=O)(=O)NCCC(=O)Nc2ccncc2)cc1	-21%
Cc1ccc(-n2c(=O)c3sccc3n(Cc3cc(=O)n4ccccc4n3)c2=O)cc1	-45.6%

SMILES	hERG current change (%, negative = inhibition) at 10uM
Cc1c(/C=N\NC(=O)C2COc3ccccc3O2)c2ccccc2n1C (stereo not drawn)	15.5%
O=C(O)CC1(CC(=O)Nc2cc3ccccc3cn2)CCCCC1	2.02%
COc1ccc(CNC(=O)C(c2ccco2)N(C(=O)c2snc(C(N)=O)c2N)c2ccccc2OC)cc1 (stereo not drawn)	-43.3%
COc1ccc2c(c1)N(S(=O)(=O)c1ccccc1)CCC2=O	-1.71%
O=C(NCc1ccco1)c1cc(C(=O)C2CC2)c[nH]1	4.05%
O=C(CCCN=C1NS(=O)(=O)c2ccccc21)OCC(=O)c1ccc(F)c(F)c1	-37%
O=C1CC(=O)C(n2cncn2)C(c2ccc(Cl)cc2)C1 (stereo not drawn)	20.3%
CCN(C(=O)c1ccc2c(=O)n3c(nc2c1)CCCCC3)c1cc(OC)ccc1OC	-2.39%
Cn1c(NC(=O)C2CC2)cc(=O)n(C)c1=O	-11.6%
CC(C)c1cc(C(=O)NNC(=S)NCc2ccco2)c(O)c(C(C)C)c1	7.37%
CCOC(=O)c1c(S(=O)(=O)NCC(=O)Nc2ccccc2)c(C)n(C)c1C	6.22%
Cn1c(CO)cnc1SCc1ccc(Cl)cc1	0.94%
O=C1CCCN1c1ccc(CNS(=O)(=O)c2ccc(F)cc2)cc1	9.5%
COc1ccc2sc3c(=O)[nH]c4ccccc4c3c2c1	-0.316%
O=C(O)CCC(=O)Nc1ccc(NC(=O)c2ccc(Cl)cc2Cl)c(Cl)c1	21.6%
CCOc1cc(-c2c(C#N)c(N)nc3c2CCc2ccccc2-3)ccc1O	12.7%
Cc1ccc(/C=C2\CCC(C3CCCC3)C2=O)cc1 (stereo not drawn)	4.78%
CCOc1ccc(N(C)S(=O)(=O)c2cc(-c3cc(C)no3)ccc2C(C)C)cc1	4.4%
FC(F)(F)c1ccc2c(c1)NP(=S)(N1CCOCC1)c1nccn1-2 (stereo not drawn)	-23.3%
